Assay results published in PubChem BioAssay AID485281 (National Center for Advancing Translational Sciences (NCATS), 2010).
Several values for one entry are separate records, joined by “and”; a condition that tells them apart may be missing. Equal values may be shown once. Out of some 350,000 compounds screened, about 260 (0.074%) were called active. Inconclusive means that the source gave no clear call. Such entries were picked first, then a sample of the others. Calls follow the shape of the dose curve; as a rule, active = well fitted inhibition curve with a large enough effect; inconclusive = small, poorly fitted or top-dose-only effect; inactive = no such curve, though single readings can be large or run the other way. Potencies beside an inconclusive call are fits to weak or partial responses and may not hold up.

Target: Ferritin light chain (Equus caballus) (UniProt P02791)
UniProt P02791, sequence (P02791 whole entry, looked up): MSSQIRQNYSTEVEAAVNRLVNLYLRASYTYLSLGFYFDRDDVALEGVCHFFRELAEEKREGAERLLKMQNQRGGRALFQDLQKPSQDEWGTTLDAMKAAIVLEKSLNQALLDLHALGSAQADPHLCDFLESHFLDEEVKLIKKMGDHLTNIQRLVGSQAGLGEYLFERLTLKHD
Assay: qHTS Assay for Identification of Novel General Anesthetics; also: nearly all actives have a fitted effect of over 20% in size
Conditions: apoferritin/1-aminoanthracene competitive binding, fluorescence; series mostly up to 77.5 µM
How it was run: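 Steps: apoferritin (10 uM) was premixed with half-saturated 1-AMA in PBS, compounds were pin-transferred, plates stood 10 min at room temperature, fluorescence was read at 380/535 nm, and curves were fitted with a Hill equation.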
Potency is read from the fitted curve at half-maximal effect; tags tell the direction and shape of the fitted curve.

| SMILES | Potency |
| --- | --- |
| Cc1ccc(NS(=O)(=O)c2ccc3[nH]c4c(c3c2)CCCCCC4)cc1 | inconclusive: 5.62 µM [inhibitor, full curve, poor fit] |
| CC(C)(C)c1ccc(S(=O)(=O)N2CCCCC2C(=O)NCc2ccccn2)cc1 (stereo unspecified) | inconclusive: 35.5 µM [inhibitor, partial curve] |
| C/C=C(\C=C\[C@@H](C)C/C=C/CC/C=C/C=C\C[C@@H](OC)/C(C)=C\C=C(C)C)CC(=O)O | inactive |
| COc1ccc(/C=C2\CCc3ccccc3C2=O)cc1OC | inconclusive: 31.6 µM [inhibitor, partial curve] |
| c1ccc(-c2cc(N3CCCCCC3)n[nH]2)cc1 | inconclusive: 14.1 µM [inhibitor, partial curve] |
| COc1ccc(C(=O)c2ccc(OC)cc2O)c(O)c1 | inconclusive: 35.5 µM [inhibitor, single point] |
| CCn1c(SCC(=O)N/N=C/C=C\c2ccco2)nc2ccccc21 | inconclusive: 31.6 µM [inhibitor, partial curve] |
| Cc1ccc2nc(SCc3cn4c(C)cc(C)nc4n3)[nH]c2c1 | inconclusive: 39.8 µM [inhibitor, partial curve] |
| Cc1ccc(N2CCN(S(=O)(=O)c3ccc4c(c3)NC(=O)C(C)C(=O)N4)CC2C)cc1 (stereo unspecified) | inconclusive: 28.2 µM [inhibitor, single point] |
| O=C(Nc1cccc(Cl)c1)c1ccc(NC2=NC3CS(=O)(=O)CC3S2)cc1 (stereo unspecified) | inconclusive: 17.8 µM [inhibitor, partial curve] |
| CC(=O)Nc1cccc(NC(=O)C(=O)c2cn(CC(=O)N3CCCCC3)c3ccccc23)c1 | inconclusive: 17.8 µM [inhibitor, partial curve] |
| COc1ccnc(Oc2ccc(C)cc2C)c1C#N | inconclusive: 28.2 µM [inhibitor, partial curve] |
| CCOc1ccc(NC(=O)COC(=O)CCCc2c[nH]c3ccccc23)cc1 | inconclusive: 11.2 µM [inhibitor, single point] |
| O=C(Nc1ccccc1)N(C1=NCCCCS1)c1cccc2ccccc12 | inconclusive: 39.8 µM [inhibitor, single point] |
| Cc1ccc(S(=O)(=O)Nc2cccc3cccnc23)cc1 | inconclusive: 25.1 µM [inhibitor, partial curve] and inconclusive: 31.6 µM [inhibitor, single point] |
| CC(C)(C)NC(=O)[C@H]1CN(Cc2cccnc2)CCN1C[C@@H](O)C[C@@H](Cc1ccccc1)C(=O)N[C@H]1c2ccccc2C[C@H]1O | inactive |
| C[C@H](C(=O)OCO/N=[N+](\[O-])N1CCCC1)c1cccc2ccccc12 | inactive |
| O=C(NCc1ccc(F)cc1)c1ccc(Cn2c(SCc3ccc(F)cc3)nc3cccnc32)cc1 | inactive |
| COc1ccc(N/N=C(\C#N)C(=N)SCc2ccccc2)cc1 | inconclusive: 28.2 µM [inhibitor, partial curve] |
| c1ccc(-c2nc3nonc3nc2-c2ccccc2)cc1 | inconclusive: 25.1 µM [inhibitor, partial curve] |
| CCC(C)NC(=O)c1ccc2c(c1)N(Cc1ccccc1F)C(=O)c1ccccc1S2=O (stereo unspecified) | inconclusive: 56.2 µM [inhibitor, single point] |
| Cc1ccc(F)c(NC(=O)C2CCCCC2C(=O)O)c1 (stereo unspecified) | inconclusive: 31.6 µM [inhibitor, partial curve] |

| SMILES | Potency |
| --- | --- |
| CCN(CC)S(=O)(=O)c1ccc(N2CCc3ccccc3C2)nc1 | inconclusive: 15.8 µM [inhibitor, partial curve] |
| COc1ccc(C2(C)NC(=O)N(CC(=O)c3ccc4c(c3)OCO4)C2=O)cc1 (stereo unspecified) | inconclusive: 25.1 µM [inhibitor, partial curve] |
| Cc1cc(C(=O)Nc2cnn(Cc3ccc(Cl)cc3Cl)c2)no1 | inconclusive: 25.1 µM [inhibitor, partial curve] |
| CCN(C(=O)Cn1c(=O)nc(-c2ccccc2)c2cc(Cl)ccc21)c1cccc(C)c1 | inconclusive: 14.1 µM [inhibitor, partial curve] |
| Cc1cc(C(=O)OC(C)C(=O)Nc2nc(-c3ccccc3)cs2)c(C)o1 (stereo unspecified) | inactive |
| CCc1ccc(C2=NN(CCC(=O)NC(C)CCc3ccccc3)C(=O)CC2)cc1 (stereo unspecified) | inconclusive: 44.7 µM [inhibitor, single point] |
| CC(C)c1ccc2c(c1)NC(c1ccncc1)=NC(c1cccs1)=N2 | inconclusive: 44.7 µM [inhibitor, partial curve, poor fit] |
| CCCCCOC(=O)NCC(O)c1ccccc1 (stereo unspecified) | inconclusive: 44.7 µM [inhibitor, partial curve] |
| CCOc1ccc(-c2cn3ccccc3n2)cc1[N+](=O)[O-] | inactive |
| COCCNC(=O)c1c[nH]c2ccc(S(=O)(=O)N3CCOCC3)cc2c1=O | inactive |
| CC(NC(=O)C1CCC(CNS(=O)(=O)c2ccc3c(c2)C(C)(C)C(=O)N3C)CC1)c1ccccc1 (stereo unspecified) | inconclusive: 20 µM [inhibitor, partial curve] |
| O=C(C1=C(O)C(=O)N(CC2CCCO2)C1c1cccnc1)c1ccco1 (stereo unspecified) | inactive |
| Cc1cccc(Cn2nnc(C(=O)Nc3cc(C)ccc3C)c2N)c1 | inconclusive: 3.55 µM [inhibitor, partial curve] |
| CCCOc1ccc(N/C=C/C(=O)c2cc(OC)c(OC)c(OC)c2)cc1 | inconclusive: 56.2 µM [inhibitor, single point] |
| c1ccc(Nc2c3c(nc4ccccc24)CCC3)cc1 | inconclusive: 25.1 µM [inhibitor, partial curve] |
| Cc1sc(NC(=O)c2ccccc2F)c(CN2CCCCC2C)c1C (stereo unspecified) | inconclusive: 31.6 µM [inhibitor, partial curve] |
| Cc1ccc(-c2nc3ccccc3[nH]2)cn1 | inactive |
| CSCc1nnc(NC(=O)c2ccc(S(=O)(=O)N(CC(C)C)CC(C)C)cc2)o1 | inconclusive: 35.5 µM [inhibitor, single point] |
| COc1ccc(NC(=S)Nc2ncccc2C)cc1OC | inactive |
| CN(Cc1ccccc1)C(=O)c1ccc(NC(=O)c2ccccc2)cc1 | inconclusive: 39.8 µM [inhibitor, single point] |
| Cc1ccccc1CNC(=O)c1cc2cc(S(=O)(=O)N3CCCCC3)ccc2n1C | inactive |
| CCOc1ccc(C2c3c(oc4ccccc4c3=O)C(=O)N2c2nnc(C)s2)cc1OC (stereo unspecified) | inconclusive: 35.5 µM [inhibitor, partial curve] |

| SMILES | Potency |
| --- | --- |
| COc1ccc(Nc2c3c(nc4ccc(NC(=O)/C=C/c5cccc(OC)c5OC)cc24)CCCC3)cc1OC | inconclusive: 22.4 µM [inhibitor, partial curve] |
| O=C(CN1C=NS(=O)(=O)c2ccc(C(F)(F)F)cc21)Nc1cccc(C(F)(F)F)c1 | inconclusive: 14.1 µM [inhibitor, partial curve] |
| CC(NC(=O)COC(=O)/C(=C/c1cccs1)c1cccs1)c1ccccc1 (stereo unspecified) | inconclusive: 50.1 µM [inhibitor, single point] |
| O=C(Nc1ccc(Br)cc1)c1cccc(C(=O)Nc2ccc(Br)cc2)c1 | inactive |
| COCCCNC(=O)Cn1nc(-c2cccc(OC)c2)ccc1=O | inconclusive: 0.891 µM [inhibitor, full curve, poor fit] |
| O=C(NCC1CCCO1)c1ccc(Oc2ccc([N+](=O)[O-])cc2Cl)cc1 (stereo unspecified) | inconclusive: 28.2 µM [inhibitor, partial curve] |
| Cc1ccc2nc(SCc3nnc(-c4ccccc4Br)o3)[nH]c2c1 | inconclusive: 28.2 µM [inhibitor, partial curve] |
| COC(=O)c1cc(=O)n(Cc2ccco2)c(=Nc2ccc(F)c(Cl)c2)s1 | inconclusive: 22.4 µM [inhibitor, partial curve] |
| COc1cc(C2NCC(c3ccc(Cl)cc3Cl)c3c2[nH]c2ccccc32)cc(OC)c1OC (stereo unspecified) | inactive |
| CCn1c2ccccc2c2cc(N)ccc21 | inconclusive: 12.6 µM [inhibitor, partial curve] |
| CC1CCCCN1Cc1nc2ccccc2c(=O)[nH]1 (stereo unspecified) | inconclusive: 25.1 µM [inhibitor, partial curve] |
| N=c1c2c3c(sc2ncn1Nc1ccccc1)CCC3 | inconclusive: 44.7 µM [inhibitor, single point] |
| CCOc1cccc(OCCCCn2cnc3ccccc3c2=O)c1 | inconclusive: 22.4 µM [inhibitor, partial curve] |
| COc1ccccc1-c1ccc(/C=C2/C=C(CC(C)C)OC2=O)o1 | inactive |
| CN(C(=S)Nc1ccc(SC(F)F)cc1)C(c1ccccc1)c1ccccc1 | inactive |
| COC(=O)c1ccccc1NC(=O)c1ccc2c(=O)n3c(nc2c1)CCCCC3 | inconclusive: 28.2 µM [inhibitor, partial curve] |
| O=c1nc(-c2ccccc2)cc(-c2ccccc2)[nH]1 | inactive |
| CCCCN(C(=O)c1c(C)[nH]c(C(=O)OCC)c1C)c1ccccc1 | inconclusive: 31.6 µM [inhibitor, partial curve] |
| COc1ccc(Cl)cc1N1Cc2ccccc2C1 | inconclusive: 56.2 µM [inhibitor, single point] |
| NC(=O)CN(c1ccccc1)C1SC(=O)N(Cc2ccccc2)C1=O (stereo unspecified) | inconclusive: 31.6 µM [inhibitor, partial curve] |
| CC1=NN(c2ccc(C)c(C)c2)C(=O)C1C(c1cccc(O)c1)C1C(=O)N(c2ccc(C)c(C)c2)N=C1C (stereo unspecified) | inconclusive: 14.1 µM [inhibitor, partial curve] |
| CCOC(=O)C1CCN(CC(O)COc2ccc(C(C)(C)C)cc2)CC1 (stereo unspecified) | inconclusive: 31.6 µM [inhibitor, partial curve] |
